About 50,000 (12%) of roughly 420,000 compounds were called active. The inconclusive results got no clear call from the source; some entries with a clear call stand among them for comparison. Calls follow the shape of the dose curve; as a rule, active = well fitted inhibition curve with a large enough effect; inconclusive = small, poorly fitted or top-dose-only effect; inactive = flat fitted curve, though single readings scatter. Potencies of inconclusive entries are left out as doubtful fits.
Test: qHTS for Inhibitors of human tyrosyl-DNA phosphodiesterase 1 (TDP1): qHTS in cells in presence of CPT; also: nearly all actives have a fitted effect of over 55% in size
Conditions: chicken DT40 Tdp1-/-;hTDP1 cells + 20 nM CPT, ATP luminescence, 48 h; activity change, negative = growth inhibition: at 46.2 µM (top of the series) unless noted
Summary of the method: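 Chicken DT40 Tdp1-/- cells complemented with human TDP1, 400 cells/well, exposed to compounds plus 20 nM camptothecin for at least 48 h at 37 C; viability read as ATP content by CellTiter-Glo luminescence.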
% is scaled to controls: 0 for no effect and ±100 for the full control effect; potency is read from the fitted curve at half-maximal effect; tags tell the direction and shape of the fitted curve.

Row | Compound | Potency | activity change, negative = growth inhibition
1 | COc1ccc(CCNC(=O)Cn2nnc(C(=O)Nc3cc(C)ccc3C)c2N)cc1OC | inconclusive [inhibitor, single point] | –
2 | O=C(Nc1ccccc1N1CCCCC1)c1cnccn1 | inconclusive [inhibitor, single point] | –
3 | COc1ccc(C2=NOC(C(=O)N(C)Cc3ccccc3)C2)cc1 (stereo not drawn) | inactive | –
4 | CCOC(=O)N1CCc2c(sc(NC(=O)CN3CCOCC3)c2C(=O)Nc2ccccc2)C1 | inconclusive [inhibitor, single point] | –
5 | CCOC(=O)c1cc(C)n(Cc2cccc(OC)c2OC)c1C | inconclusive [inhibitor, single point] | –
6 | COc1cccc(CNC(=O)CCC2CCCN(C(=O)c3csc(C(C)C)n3)C2)c1 (stereo not drawn) | – | inconclusive: -38.4% [inhibitor]
7 | c1ccc(CN2CCN(C(c3ccccc3)c3ccccc3)CC2)cc1 | inconclusive [inhibitor, single point] | –
8 | COc1ccccc1NS(=O)(=O)c1ccc(C)c(NC(=O)c2c(C)noc2C)c1 | inactive | –
9 | COc1ccc(CNC(=O)CSc2ncc3c(n2)-c2cc(Cl)ccc2N(C)S3(=O)=O)cc1 | inconclusive [inhibitor, single point] | –
10 | O=C(C1CCN(C2CC(=O)N(c3cccc(Cl)c3)C2=O)CC1)N1CCCC1 (stereo not drawn) | active: 16.4 µM | –
11 | CCOC(=O)c1cc(OC(=O)c2ccccc2OC)n(-c2ccccc2)n1 | inactive | –
12 | O=C(c1cccc2ccccc12)N1CCN(CC2CC=CCC2)CC1 (stereo not drawn) | inactive | –
13 | O=C(Cn1c(=O)n(-c2ccccc2)c(=O)c2ccc(C(=O)NCc3ccc4c(c3)OCO4)cc21)Nc1ccc(F)c(Cl)c1 | inconclusive [inhibitor, single point] | –
14 | CN(CCCNC(=O)c1cc2c(=O)n(C)c3ccccc3c2s1)Cc1ccccc1 | active: 4.61 µM | –
15 | Cc1c(C(=O)N2CC(C)OC(C)C2)sc2nc(-c3ccc(F)cc3)cn12 (stereo not drawn) | inconclusive [inhibitor, single point] | –
16 | Brc1nnc2n1-c1ccccc1Sc1ccccc1-2 | inactive | –
17 | Cc1ccc(NC(=O)Cc2ccccc2Cl)cc1S(=O)(=O)N(C)C | inactive | –
18 | Cc1ccc(NC(=O)Nc2cccs2)c(C)c1 | active: 14.6 µM | –
19 | CCCCNc1ncnc2sc3c(c12)CCN(CCC)C3 | inconclusive [inhibitor, single point] | –
20 | CCOC(=O)c1c(NC(=O)c2ccn(CC)n2)sc2c1CCCC2 | inconclusive [inhibitor, single point] | –
21 | O=C(CCC(=O)c1cccs1)NNC(=O)c1cccc(Cl)c1 | inconclusive [inhibitor, single point] | –
22 | CCN1C(=O)c2ccccc2Sc2ccc(NC(=O)c3cccc(C)c3)cc21 | inconclusive [inhibitor, single point] | –
23 | COc1ccc(-c2nc3cnc(N(C)C)nc3n(Cc3ccc(F)cc3)c2=O)cc1 | inactive | –
24 | CN(C)CCNc1oc(-c2cccc(Cl)c2)nc1C#N | inactive | –

Row | Compound | Potency | activity change, negative = growth inhibition
25 | Cc1ccc(OCc2nnc(SCC(=O)c3ccccc3)n2Cc2ccco2)cc1 | active: 23.1 µM | –
26 | O=C(Nc1nc2ccc([N+](=O)[O-])cc2s1)c1ccc(S(=O)(=O)N2CCCc3ccccc32)cc1 | active: 4.61 µM | –
27 | O=C(CCNC(=O)c1ccccc1Cl)Nc1nc(-c2ccc(F)cc2)cs1 | inconclusive [inhibitor, single point] | –
28 | CCn1cc(S(=O)(=O)Nc2cc(F)ccc2C)cn1 | inactive | –
29 | COc1ccc(CCNC(=O)c2ccc3c(c2)N(Cc2cccc(Cl)c2)C(=O)c2ccccc2S3=O)cc1OC (stereo not drawn) | inconclusive [inhibitor, single point] | –
30 | COc1cc(/C=C/C(=O)O)cc(S(=O)(=O)N2CCCc3ccccc32)c1OC | inconclusive [inhibitor, single point] | –
31 | CN(NC(=O)Nc1ccccc1)c1cnn(C)c(=O)c1Cl | inconclusive [inhibitor, single point] | –
32 | N=c1nc(-c2ccccc2)n(-c2ccccc2)s1 | inconclusive [inhibitor, single point] | –
33 | CCOC(=O)c1ccc(NC(=O)N2CCCCC2)cc1 | inactive | –
34 | O=C(CN1C(=O)C2C3C=CC(C3)C2C1=O)OCC(=O)c1ccc(Br)cc1 (stereo not drawn) | inconclusive [inhibitor, single point] | –
35 | Cc1cccc(CC(=O)NCCc2sc3nc(-c4ccc(F)cc4)nn3c2C)c1 | inconclusive [inhibitor, single point] | –
36 | Cc1nnc2ccc(-c3cccc(NC(=O)c4ccco4)c3)nn12 | inconclusive [inhibitor, single point] | –
37 | COc1cc([C@@H]2CC=C(C(=O)O)[C@H](c3cccc(Cl)c3)N2S(=O)(=O)c2ccc(C)cc2)cc(OC)c1OC | inactive | –
38 | C(=N\Nc1nncc2ccccc12)/c1ccccn1 | active: 2.31 µM | –
39 | CCC(C)NC(=O)CSCc1nc(-c2ccc(C)cc2)oc1C (stereo not drawn) | inconclusive [inhibitor, single point] | –
40 | CN1CCN(C(=O)c2ccc3c(c2)N(Cc2ccc(Cl)cc2)C(=O)c2ccccc2S3(=O)=O)CC1 | inactive | –
41 | CSCCC(NS(=O)(=O)c1ccc(Cl)cc1)C(=O)OCC(=O)NC12CC3CC(CC(C3)C1)C2 (stereo not drawn) | active: 12.6 µM | –
42 | CCOC(=O)C1=CC[C@]2(C)c3c(c4ccccc4n3C)C(=O)C1N2C | inactive | –
43 | CC(OC(=O)c1cccnc1Cl)C(=O)Nc1ccc2c(c1)OCO2 (stereo not drawn) | inconclusive [inhibitor, single point] | –
44 | c1cc(-c2nnc3sc(C4CCCCC4)nn23)ccn1 | inconclusive [inhibitor, partial curve] | –
45 | Cn1c(=O)c2c(ncn2CC(=O)N2CCOCC2)n(C)c1=O | inactive | –
46 | COc1ccc(NC(=O)CN(C)Cc2c(F)cccc2Cl)cc1S(=O)(=O)N1CCCCC1 | inactive | –
47 | O=C(Nc1ccc(F)c(Cl)c1)c1cncs1 | inactive | –
48 | c1ccc(-c2nn3c(-c4ccccc4)nnc3o2)cc1 | inconclusive [inhibitor, single point] | –

Source: PubChem BioAssay AID686979 (National Center for Advancing Translational Sciences (NCATS), 2013)
